According to PubChem BioAssay AID488969 (Vanderbilt High Throughput Screening Facility, 2010):
The full ranking holds about 110,000 compounds; the median of “z-score” is about -0.1, and the highest 2% start at about 2. The list shows a part of the results.

Molecular target: Metabotropic glutamate receptor 8 (Rattus norvegicus) (UniProt P70579)
Experiment: rat mGluR8 modulators via GIRK flux, primary screen, cell-based, thallium flux, HTS (AID 488969)
Settings: HEK293 rat mGluR8, GIRK (G protein-gated inwardly rectifying potassium channel) thallium flux, FluoZin2; at 10 µM; stronger effect = higher value; submaximal glutamate (EC20) added with thallium

Chain of UniProt P70579 (P70579 whole entry, looked up): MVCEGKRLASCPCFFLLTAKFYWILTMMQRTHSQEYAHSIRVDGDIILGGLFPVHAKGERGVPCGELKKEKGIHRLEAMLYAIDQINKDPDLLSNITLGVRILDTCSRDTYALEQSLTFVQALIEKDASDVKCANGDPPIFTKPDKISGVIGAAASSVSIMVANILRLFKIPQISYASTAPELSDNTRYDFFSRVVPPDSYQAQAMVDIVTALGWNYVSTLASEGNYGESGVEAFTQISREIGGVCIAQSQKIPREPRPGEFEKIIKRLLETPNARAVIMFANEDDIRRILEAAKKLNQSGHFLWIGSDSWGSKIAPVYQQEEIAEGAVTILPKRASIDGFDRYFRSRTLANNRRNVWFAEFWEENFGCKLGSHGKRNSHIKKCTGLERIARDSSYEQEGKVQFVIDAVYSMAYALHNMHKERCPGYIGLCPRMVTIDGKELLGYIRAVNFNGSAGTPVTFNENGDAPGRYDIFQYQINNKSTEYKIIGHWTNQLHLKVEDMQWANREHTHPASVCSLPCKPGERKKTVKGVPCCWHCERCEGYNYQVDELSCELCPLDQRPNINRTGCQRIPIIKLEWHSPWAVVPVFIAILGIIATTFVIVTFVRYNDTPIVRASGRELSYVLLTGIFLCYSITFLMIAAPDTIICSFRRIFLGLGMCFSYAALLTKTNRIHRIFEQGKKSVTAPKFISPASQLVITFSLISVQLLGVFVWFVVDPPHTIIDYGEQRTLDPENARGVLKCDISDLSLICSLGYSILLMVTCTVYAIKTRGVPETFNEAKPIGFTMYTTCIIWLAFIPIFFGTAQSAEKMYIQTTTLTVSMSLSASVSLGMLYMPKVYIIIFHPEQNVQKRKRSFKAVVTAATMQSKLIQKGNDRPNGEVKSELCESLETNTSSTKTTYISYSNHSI

| SMILES | z-score |
| --- | --- |
| O=C(NCCc1ccccc1F)C1CCCN1S(=O)(=O)c1ccc2ccccc2c1 (configuration not stated) | -0.428 |
| CCOC(=O)c1cnc2ccccc2c1Nc1ccc2c(c1)OCCO2 | -0.283 |
| O=C1CCCC2=C1C(c1cccs1)n1ncnc1N2 (configuration not stated) | -0.0422 |
| CCCCCCC(=O)N/N=C(\C)Cc1ccccc1 | -0.338 |
| O=C(Nc1cccc(NC(=O)c2cccnc2Cl)c1)c1ccco1 | 0.42 |
| CCOC(=O)C1=C(c2ccccc2)NC(=S)NC1C (configuration not stated) | 0.119 |
| CN1CCN(c2ccc(NC(=O)c3ccc4c(c3)OCO4)cc2)CC1 | -0.677 |
| COC(=O)c1cccc(CSc2nnc(C)s2)c1 | -0.565 |
| O=C(CN(C1CCCCC1)S(=O)(=O)c1ccc(F)cc1)NCCCO | 0.99 |
| CCCC1(C(=O)OC)NC(c2ccc(OC)c(OC)c2)C2C(=O)N(c3ccc4c(c3)OCO4)C(=O)C21 (configuration not stated) | 0.00817 |
| Nc1c(C(=O)NCc2ccccc2)nnn1Cc1ccccc1 | -0.0852 |
| CC1CN(CCc2ccccc2)c2nc3c(c(=O)[nH]c(=O)n3C)n2C1 (configuration not stated) | 0.411 |
| COc1ccccc1NC(=O)COc1ccc(Br)cc1CO | 2.95 |
| CCN1CCCC1CN(Cc1cc2cc(C)ccc2[nH]c1=O)C(=O)Nc1ccccc1OC (configuration not stated) | -0.807 |
| COc1ccc(OC(=O)c2ccncc2)cc1 | -0.235 |
| O=C(CCCCCN1C(=O)CCC1=O)Nc1ccc(Br)cc1F | -0.095 |
| Cc1ccc(C(=O)CSc2nc(N)cc(=O)[nH]2)cc1 | -0.0831 |
| CCOc1ccc(/C(O)=C2/C(=O)C(=O)N(CC3CCCO3)C2c2ccc(C)o2)cc1 (configuration not stated) | -0.916 |
| COc1ccc(CNC2CCCc3ccccc32)cc1OC (configuration not stated) | -0.106 |
| Cc1nnsc1C(=O)N/N=C/c1ccccc1 | 0.0925 |
| COc1ccc(/C=N/N2C(=O)CSC2=S)cc1 | -0.223 |
| CC(C)c1nnc(NC(=O)CCC(=O)NC2CCCc3ccccc32)s1 (configuration not stated) | -0.244 |
| COc1ccc(NC(=O)C2CC(=O)OC2c2ccccc2)cc1 (configuration not stated) | -0.227 |

| SMILES | z-score |
| --- | --- |
| COc1cc(C)nc(Oc2ccc(OCCOc3ccc(C)cc3)nn2)n1 | 0.22 |
| CCOC(=O)c1c(C)nc2sc3c(=O)n(-c4ccc(C)cc4)cnc3c2c1-c1ccc(OC)cc1 | -0.181 |
| O=C(Nc1cccc(F)c1)C1CCN(C(=O)c2ccccc2Cl)CC1 | -0.486 |
| CCN1C(=O)C(C(=O)Nc2ccc(OC)cc2)C2CC1(C)Oc1ccccc12 (configuration not stated) | -0.393 |
| O=C(CN1C(=O)c2cccc3cccc1c23)N1CCN(c2ccc(F)cc2)CC1 | 0.917 |
| Cc1ccccc1NC(=O)c1ccc(C)c(S(=O)(=O)Nc2ccccn2)c1 | -0.0342 |
| C=CCn1c(SCC(=O)O)nnc1-c1cccs1 | 0.204 |
| Cc1ccc(C)c(N=Nc2nc3ccccc3n2C)c1 | -0.337 |
| Cc1oc(-c2cccc(Cl)c2)[n+]([O-])c1C | 0.246 |
| O=C(CC(SCCO)c1ccc2c(c1)OCO2)c1cccs1 (configuration not stated) | -0.239 |
| Nc1c(-c2ccccc2)c(CSc2nc3ccccc3[nH]2)nn1-c1ccc(C(=O)O)cc1 | -0.238 |
| COc1ccc(C(CC(=O)NCCCN2CCOCC2)NS(=O)(=O)c2ccc(C)cc2)cc1 (configuration not stated) | 1.53 |
| COc1ccccc1Nc1nnc(SCC(=O)N2CC(=O)Nc3ccccc32)s1 | -0.0654 |
| CC1(C)CC(=O)c2sc(NC(=O)c3ccc4ncsc4c3)nc2C1 | 0.617 |
| c1ccc(COc2ccc(CN3CCN(c4ccccn4)CC3)cc2)cc1 | 0.0284 |
| COc1ccc2c(C)cc(SCC(=O)NCCN3C(=O)CSC3=O)nc2c1 | -0.133 |
| COc1cc(S(=O)(=O)NCc2cccnc2)ccc1F | -0.295 |
| COc1ccc(C(=O)NC(NC(=S)Nc2ccc(S(N)(=O)=O)cc2)C(Cl)(Cl)Cl)cc1 (configuration not stated) | -0.78 |
| Cc1cc(=O)[nH]c(SCC(=O)N2CCCc3ccccc32)n1 | 0.265 |
| CCCC(O)(CCC)C(=O)NNc1ccccc1 | -0.799 |
| COc1ccc(S(=O)(=O)NC(CC(=O)NCCc2ccccc2)c2ccco2)cc1 (configuration not stated) | 0.734 |
| N=c1c(C(=O)NCc2ccco2)cc2c(=O)n3ccccc3nc2n1Cc1ccccc1 | 1.15 |
| Cc1cccc(OCCN2C(=O)C(=O)c3cccc(C)c32)c1 | -0.0757 |

| SMILES | z-score |
| --- | --- |
| O=C(c1ccc(-c2ccc(Cl)cc2)o1)N1CCN(c2ccc([N+](=O)[O-])cc2Cl)CC1 | 0.535 |
| O=C(NCc1ccccc1Cl)c1ccc(S(=O)(=O)Nc2cccc(C(F)(F)F)c2)cc1 | -0.166 |
| CCn1cc([N+](=O)[O-])c(C(=O)Nc2ccn(Cc3ccccc3F)n2)n1 | 0.324 |
| COCc1nnc(NC(=O)c2cccs2)s1 | -0.0696 |
| Cc1ccc(O)c(-c2cc(C(F)(F)F)[nH]n2)c1 | -1.36 |
| CC1CCN(c2nc(/C=C/c3ccccc3)nc3ccccc23)CC1 | -0.13 |
| COc1ccc(NC(=O)CN(c2cccc(C(F)(F)F)c2)S(C)(=O)=O)cc1OC | -0.276 |
| CCOC(=O)C(NS(=O)(=O)c1ccccc1)(C(F)(F)F)P(=O)(OC(C)C)OC(C)C (configuration not stated) | -0.166 |
| CCOC(=O)c1sc2nc(C)cc(-c3ccccc3)c2c1N | -0.0449 |
| COCCn1nnnc1C(c1ccc(C(F)(F)F)cc1)N1CCOCC1 (configuration not stated) | -0.933 |
| CCOC(=O)c1c(NC(=O)CNCCOC)sc2c1CCCC2 | -1.06 |
| COCCn1c(-c2ccc(Cl)cc2)cnc1SCC(=O)NCCc1ccc(OC)c(OC)c1 | -0.247 |
| COC(=O)C1CCN(C(=O)CSc2ccccc2)CC1 | -0.196 |
| NC(=O)c1ccccc1NC(=O)NC1CCCCC1 | 0.353 |
| CC(=O)Nc1c(C(=O)C2CC2)oc2ccccc12 | -0.133 |
| CC(=O)Oc1ccc(N(C(C)=O)S(=O)(=O)c2cc([N+](=O)[O-])ccc2C)cc1 | -0.849 |
| O=C(O)CCC(=O)Nc1ccc(Cc2ccc(NC(=O)CCC(=O)O)c(O)c2)cc1O | -0.64 |
| O=c1cc(CO)oc(C(Nc2ccccn2)c2ccsc2)c1O (configuration not stated) | -0.352 |
| COC(=O)C(C)N(c1ccc(C)cc1)S(=O)(=O)c1c(C)[nH]c(=O)[nH]c1=O (configuration not stated) | -0.0145 |
| COc1ccc(CCN2C(=O)CC(NNC(=O)c3cccc(O)c3)C2=O)cc1 (configuration not stated) | -0.268 |
| Cc1ccc(N)c2c1OCCC2=O | -0.365 |
| CCOc1ccc(Br)cc1S(=O)(=O)Nc1ccc(Cl)c(S(=O)(=O)N(C)C)c1 | -1.32 |
| Cc1cccc(NC(=S)NC2CC3CCC(C2)N3Cc2ccco2)c1 (configuration not stated) | 0.812 |

| SMILES | z-score |
| --- | --- |
| CCOc1cc(N(CC)CC)ccc1/C=C(/C#N)c1nc2ccccc2[nH]1 | -0.645 |
| CC1(C)CC(=O)C(C=NCc2cccnc2)=C(O)C1 | -0.0188 |
| O=C(COc1ccc(-c2nnco2)cc1)NCc1ccccc1Cl | -0.263 |
| COc1ccc(-c2nnc(SC(C)C(=O)NCc3ccc4c(c3)OCO4)n2Cc2ccco2)cc1 (configuration not stated) | -0.374 |
| COCCCNC(=O)/C=C/c1cccc(Cl)c1 | 0.204 |
| Cc1nc2ccccn2c1C(=O)Nc1ccc2c(c1)OCCO2 | 0.163 |
| S=C(Nc1ccc(N2CCOCC2)cc1)Nc1ccc2nc(-c3ccco3)c(-c3ccco3)nc2c1 | 0.507 |
| CC(C)C(=O)Nc1ccc(NC(=O)c2cc3ccccc3o2)cc1 | -0.885 |
| O=C(NCN1CCCCC1)c1cnccn1 | -0.287 |
| CCn1c(=Nc2ccc(N3CCOCC3)cc2)ccc2ccccc21 | -0.905 |
| COc1ccc(CNC(=O)c2cnc3n(c2=O)CCS3)cc1 | -0.183 |
| O=C(NC(=S)Nc1cccc(CO)c1)c1ccc(-c2ccccc2)cc1 | -0.0673 |
| COc1ccc(NC(=O)c2cccc(C#N)c2)cc1NS(=O)(=O)c1ccc(F)cc1 | -0.241 |
| c1ccc2nc(N3CCOCC3)c(N3CCOCC3)nc2c1 | -0.394 |
| Cc1ccc(C2CC(C(F)(F)F)n3nc(C(=O)NCC4CCCO4)cc3N2)cc1 (configuration not stated) | 0.887 |
| CC(=O)NC(NC(C)=O)c1ccc(Br)cc1 | -0.126 |
| COc1ccc(C(=O)Nc2nc(C)c(C)s2)cc1OC | -0.276 |
| O=[N+]([O-])c1cc(C(F)(F)F)ccc1N1CCN(S(=O)(=O)c2ccc3c(c2)CCCC3)CC1 | 0.0262 |
| Cc1cc(NC(=O)c2ccccc2Cl)no1 | -0.157 |
| Cc1ccc(NC(=O)C2CCN(S(=O)(=O)c3c(C)[nH]c(=O)[nH]c3=O)CC2)cc1 | 0.143 |
| CC1CCCN(C(=O)CSCC(=O)Nc2nc(-c3cccs3)cs2)C1 (configuration not stated) | 0.503 |
| O=C(Nc1c2ccccc2nc2ccccc12)C(Cl)(Cl)Cl | 0.00142 |
| Cc1ccc(S(=O)(=O)N2CCN(C(C)C(=O)Nc3ccccc3-c3ccccc3)CC2)cc1 (configuration not stated) | -0.164 |

| SMILES | z-score |
| --- | --- |
| CCOC(=O)CSc1nc2cc(S(=O)(=O)Nc3ccccc3OC)ccc2o1 | -1.72 |
| Cc1ccc(SCCC(=O)NC(C(C)C)C(C)C)cc1 | -0.0763 |
| CCOC(=O)Cc1nnc(NC(=O)C(CC)Sc2nc(C)cc(C)n2)s1 (configuration not stated) | -0.0328 |
| Cc1ccc(S(=O)(=O)N(CC(O)CN2C(=O)NC(C)(C)C2=O)c2ccccc2)cc1 (configuration not stated) | 0.077 |
| Cc1nc2ccc(S(=O)(=O)c3ccc4nc(C)[nH]c4c3)cc2[nH]1 | -0.229 |
| O=C(O)CN1C(=O)SC(Nc2ccccc2)C1=O (configuration not stated) | 0.0986 |
| COc1ccc(C2NC(=O)NC(c3ccccc3)=C2c2nc3ccccc3s2)cc1 (configuration not stated) | -1.01 |
| O=C(Nc1ccccc1)N1CCN(Cc2ccccc2)CC1 | -0.0692 |
| CCCCSc1nnc(-c2ccc(C)cc2)n1C | -0.303 |
| Cn1c(=O)c2c(nc(CN3CCN(C(c4ccccc4)c4ccccc4)CC3)n2CC(N)=O)n(C)c1=O | 0.516 |
| COc1ccccc1Oc1c(C)oc2c(CN3CCN(CCO)CC3)c(O)ccc2c1=O | 0.798 |
| O=C(NC1CCCCC1)c1ccc(CS(=O)(=O)Cc2ccccc2F)o1 | 0.401 |
| CC1=C(C(=O)Nc2cccnc2)C(c2ccc(C(C)C)cc2)n2ncnc2N1 (configuration not stated) | 0.375 |
| Cc1nc2ccsc2c(=O)n1-c1ccc(Cl)cc1 | -0.0701 |
| CCN=C1SC(CC(=O)Nc2ccccc2)C(=O)N1CC (configuration not stated) | 0.224 |
| CC(C)c1ccc(OCC(=O)Nc2ccc(OC(F)(F)F)cc2)cc1 | -0.173 |
| COC(=O)c1sccc1NC(=O)CSc1nnnn1-c1ccccc1C | 0.0457 |
| Cc1ccc(OCC(=O)N/N=C/C=C/c2ccco2)cc1 | 0.0246 |
| O=C(Nc1ccncc1)Nc1ccc(F)cc1F | 0.57 |
| O=C1C=C(NC2=CC3OC(c4ccccc4)OCC3OC2=O)CCC1 (configuration not stated) | -0.2 |
